Experimental data: the supplement of paper PMC4967469
A lower IC50 marks a more sensitive line; where the fit passes the top or lowest dose, that dose stands as a limit. AUC, from the same fit, is the share of area under the viability curve across the 256-fold dose range: 1 means no effect, lower means more sensitive.

Compound: NC1(c2ccc(-c3nc4ccn5c(=O)[nH]nc5c4cc3-c3ccccc3)cc2)CCC1 [MK-2206]
Assay: Viability of human cancer cell lines after 72 h of drug (GDSC screen)
Method: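 Human cancer cell lines in 384-well plates, medium with 10% serum, drug for 72 h over a 256-fold dose range (nine 2-fold or five 4-fold steps up to the top dose). Adherent lines were fixed and stained with the nucleic acid dye Syto60, suspension lines read with resazurin; signal relative to control wells, capped at 0 and 100%. One two-parameter sigmoid per drug and line, fitted in a mixed model over all curves with the slope shared within a line.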

Question: Which AUC does the source give for “VMRC-LCD (lung adenocarcinoma, adherent, top dose 4 µM)” here?
Answer: 0.988

Question: And the IC50?
Answer: > 4 µM

Question: Which AUC does the source give for “VMRC-RCZ (kidney, adherent, top dose 4 µM)” here?
Answer: 0.85

Question: What about the IC50 of the same cell line?
Answer: 3.86 µM

Question: Which AUC does the source give for “WIL2-NS (lymphoid neoplasm, suspension, top dose 4 µM)” here?
Answer: 0.992

Question: What about the IC50 of the same cell line?
Answer: > 4 µM

Question: For “WM35 (melanoma, adherent, top dose 4 µM)”, which AUC is on record?
Answer: 0.897

Question: What about the IC50 of the same cell line?
Answer: > 4 µM

Question: For “WM793B (melanoma, adherent, top dose 4 µM)”, which AUC is on record?
Answer: 0.98

Question: And the IC50?
Answer: > 4 µM

Question: How did the AUC turn out when “WM1552C (melanoma, adherent, top dose 4 µM)” was run?
Answer: 0.958

Question: And the IC50?
Answer: > 4 µM

Question: With “WM-115 (melanoma, adherent, top dose 4 µM)” as the cell line, how does the AUC read?
Answer: 0.905

Question: What about the IC50 of the same cell line?
Answer: > 4 µM

Question: “WSU-DLCL2 (B-cell lymphoma, suspension, top dose 4 µM)” was tested. Which AUC did it give?
Answer: 0.565

Question: What about the IC50 of the same cell line?
Answer: 0.365 µM

Question: “WSU-NHL (lymphoid neoplasm, suspension, top dose 4 µM)” was tested. Which AUC did it give?
Answer: 0.47

Question: What about the IC50 of the same cell line?
Answer: 0.209 µM

Question: Which AUC does the source give for “YAPC (pancreas, adherent, top dose 4 µM)” here?
Answer: 0.954

Question: What about the IC50 of the same cell line?
Answer: > 4 µM

Question: What does the source list for YH-13 (glioma, adherent, top dose 4 µM)?
Answer: AUC: 0.757; IC50: 1.44 µM

Question: Which results are given for YKG-1 (glioma, adherent, top dose 4 µM)?
Answer: AUC: 0.924; IC50: > 4 µM

Question: For “YT (lymphoid neoplasm, suspension, top dose 4 µM)”, which AUC is on record?
Answer: 0.531

Question: And the IC50?
Answer: 0.3 µM

Question: Which results are given for “ZR-75-30 (breast, adherent, top dose 4 µM)”?
Answer: AUC: 0.809; IC50: 3.6 µM

Question: Which results are given for huH-1 (liver, adherent, top dose 4 µM)?
Answer: AUC: 0.768; IC50: 1.85 µM

Question: With no-11 (glioma, adherent, top dose 4 µM) as the cell line, how does the AUC read?
Answer: 0.915

Question: And the IC50?
Answer: > 4 µM
